Source: PubChem BioAssay AID588591 (National Center for Advancing Translational Sciences (NCATS), 2011)
Out of some 390,000 compounds screened, about 4,700 (1.2%) were called active. The shares of active, inactive and inconclusive entries below differ from those in the screen. The call rests on the fitted dose curve; in most records, active means well fitted inhibition curve with a large enough effect; inconclusive means small, poorly fitted or top-dose-only effect, or another doubt; inactive means no such curve, though single readings can be large or run the other way. A potency beside an inconclusive call is a rough fit, not a confirmed value.

Target: DNA polymerase eta (Homo sapiens) (UniProt Q9Y253)
Assay: qHTS for Inhibitors of Polymerase Eta
Details: recombinant Pol eta, fluorescent DNA replication assay; series mostly up to 114 µM
Procedure, shortened: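 Pol eta (10 nM) was preincubated with compounds for 15 min at room temperature, after which fluorescent replication substrate (50 nM final) was added to start the reaction. Fluorescence was read kinetically at 0 and 10 min.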
Potency means the concentration at half of the fitted maximal effect; tags describe the fitted curve by direction and shape.

Chain of UniProt Q9Y253 (Q9Y253 whole entry, looked up): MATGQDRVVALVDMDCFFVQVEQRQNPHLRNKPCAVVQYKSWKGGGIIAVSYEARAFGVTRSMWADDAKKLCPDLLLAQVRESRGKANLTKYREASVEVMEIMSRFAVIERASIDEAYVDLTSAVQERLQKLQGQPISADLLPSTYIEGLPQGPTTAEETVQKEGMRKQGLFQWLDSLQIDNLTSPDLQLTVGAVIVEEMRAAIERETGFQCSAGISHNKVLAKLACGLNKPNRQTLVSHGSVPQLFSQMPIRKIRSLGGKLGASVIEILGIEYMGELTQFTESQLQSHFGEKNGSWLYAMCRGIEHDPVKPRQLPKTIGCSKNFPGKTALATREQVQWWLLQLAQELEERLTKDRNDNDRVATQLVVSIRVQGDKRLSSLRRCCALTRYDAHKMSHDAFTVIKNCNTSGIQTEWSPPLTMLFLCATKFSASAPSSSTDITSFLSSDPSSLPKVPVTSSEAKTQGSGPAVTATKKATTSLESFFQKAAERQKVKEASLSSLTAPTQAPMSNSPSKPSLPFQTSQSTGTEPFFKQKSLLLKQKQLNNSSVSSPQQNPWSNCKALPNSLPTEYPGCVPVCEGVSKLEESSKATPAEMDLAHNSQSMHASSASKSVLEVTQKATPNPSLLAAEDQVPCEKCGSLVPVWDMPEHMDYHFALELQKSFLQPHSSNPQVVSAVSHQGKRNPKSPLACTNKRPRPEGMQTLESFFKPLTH

| SMILES | Potency |
| --- | --- |
| COc1ccc(C2CC(=O)Nc3ccccc3S2(=O)=O)cc1OC (centres undefined) | inconclusive: 31.6 µM [inhibitor, partial curve] |
| CCCSCC(=O)Nc1ncc2c(n1)-c1ccccc1CC2 | inconclusive: 22.4 µM [inhibitor, full curve, poor fit] |
| Cc1ccc(NC(=O)c2sc(-n3nc(C)c(Cc4ccc5c(c4)OCO5)c3C)nc2C)cc1C | inactive |
| O=C(O)c1ccccc1N=N/C(=N/Nc1cc(S(=O)(=O)O)ccc1O)c1ccccc1 | inconclusive: 35.5 µM [inhibitor, partial curve, poor fit] |
| COc1ccc(C2NC(=O)N(C)C3=C2C(=O)N(c2ccc(F)cc2)C3)cc1 (centres undefined) | inactive |
| O=C(CCCN1C(=O)/C(=C\c2ccccc2)SC1=S)Nc1ccc(C(=O)O)cc1 | inconclusive: 89.1 µM [inhibitor, partial curve] |
| COc1ccc(NC(=O)CSc2nc(-c3ccco3)nc3cc(=O)[nH]n23)cc1 | inconclusive: 100 µM [inhibitor, single point] |
| CN(C)C(=O)COC(=O)c1ccc(S(=O)(=O)NCc2ccco2)cc1 | active: 22.4 µM |
| COc1ccc(NC(=O)c2cccc3c2C(=O)c2ccc(-c4cnc(OC)nc4)cc2S3(=O)=O)cc1 | inconclusive: 11.2 µM [inhibitor, full curve, poor fit] |
| Cc1ccc(NC(=O)CS(=O)CC(=O)Nc2ccc(N3CCOCC3)cc2)cc1Cl (centres undefined) | inconclusive: 15.8 µM [inhibitor, full curve, poor fit] |
| CSc1nc2c(c(=O)[nH]1)C(c1cccs1)C1=C(CCCC1=O)N2 (centres undefined) | active: 15.8 µM |
| CCOCCCn1c(=N)c(C(N)=S)cc2c(=O)n3cccc(C)c3nc21 | inactive |
| O=C(O)/C=C/C(=O)c1ccc2c(c1)CCc1ccccc1-2 | active: 35.5 µM |
| COc1ccc(/C=C/C(=O)O)cc1S(=O)(=O)N1CCC(Cc2ccccc2)CC1 | inconclusive: 50.1 µM [inhibitor, partial curve] |
| CC(=O)Oc1c2occc2cc2ccc(=O)oc12 | inconclusive: 17.8 µM [inhibitor, full curve] |
| NC(CSC(c1ccccc1)(c1ccccc1)c1cccc2ccccc12)C(=O)O (centres undefined) | active: 20 µM |
| Cc1cc(=O)[nH]c(N/N=C/c2ccc(-c3ccc([N+](=O)[O-])cc3)o2)n1 | inconclusive: 79.4 µM [inhibitor, single point] |
| C/C=C(\C)C(=O)N1CC2(CC(c3cccc(NC(=O)CCCCC)c3)=NO2)C[C@@H]1C(N)=O (some centres undefined) | inactive |
| Cc1cc(=O)oc2cc(OCC(=O)c3ccc4c(c3)NC(=O)CO4)ccc12 | inconclusive: 3.98 µM [inhibitor, full curve] |
